Legend:
[1] = biological target: CD137-muFc; assay: indirect ELISA, plate coated with 5 ug/mL CD137-muFc; preparation 14 at T0 (the reference itself)
[2] = biological target: CD137-muFc; assay: indirect ELISA, plate coated with 5 ug/mL CD137-muFc; preparation 13 at T0 (the reference itself)
[3] = biological target: CD137-muFc; assay: indirect ELISA, plate coated with 5 ug/mL CD137-muFc; preparation 14 at T0
[4] = biological target: CD137-muFc; assay: indirect ELISA, plate coated with 5 ug/mL CD137-muFc; preparation 14 after 4 weeks of storage, against T0
[5] = biological target: CD137-muFc; assay: indirect ELISA, plate coated with 5 ug/mL CD137-muFc; preparation 13 after 4 weeks of storage
[6] = biological target: CD137-muFc; assay: indirect ELISA, plate coated with 5 ug/mL CD137-muFc; preparation 13 after 4 weeks of storage, against T0
[7] = biological target: CD137-muFc; assay: indirect ELISA, plate coated with 5 ug/mL CD137-muFc; preparation 13 at T0
[8] = biological target: CD137-muFc; assay: indirect ELISA, plate coated with 5 ug/mL CD137-muFc; preparation 14 after 4 weeks of storage

B1: C2-7BN78K-Fc (Fc fusion)
scFv: EVQLVESGGGLVKPGGSLRLSCAASGFTVSDYYMNWIRQAPGKGLEWVSYISSSASGSTIYYADSVKGRFTISRDNAKNSLYLQMNSLRTEDTAIYYCARVVPAGSGWRWFDPWGQGTLVTVSSGGGGSGGGGSGGGGSQSVLIQPPSVSGSPGQSVTISCTGISSDVGAYDYVSWYQQHPGKVPKLMIYEVSKRPSGVPDRFSGSKSGDTASLTISGLQAEDEADYYCSSHAGSNNFYVFGTGTKLTVLGGGGS[… human IgG4 Fc with S228P (EU numbers) …]
Binding activity (relative, EC50 at T0 against EC50 of the sample) [1]: 100%
Binding activity (relative, EC50 at T0 against EC50 of the sample) [2]: 100%
EC50 [3]: 0.0194 µg/mL
Binding activity (relative, EC50 at T0 against EC50 of the sample) [4]: 79.9%
EC50 [5]: 0.0229 µg/mL
Binding activity (relative, EC50 at T0 against EC50 of the sample) [6]: 74.9%
EC50 [7]: 0.0171 µg/mL
EC50 [8]: 0.0243 µg/mL

— patent publication US20230285555A1
